The other results are listed elsewhere or left out. Repeats are few or missing, and single values can be far off.
Tests used:
Experiment in all cases: cell count relative to DMSO control; melanoma cells; higher = more viable cells
Conditions in all cases: library dose: standard library concentration; 72 h
[1] = tested on: A101D
[2] = tested on: A2058
[3] = tested on: A375
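Note: cells treated in 1,536-well plates, then fixed and DAPI-stained, with nuclei counted from automated high-throughput microscope images.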

SMILES | cell count [1] | cell count [2] | cell count [3]
CCCCCCCCc1ccc(CCC(N)(CO)CO)cc1 [fingolimod] + C[As](C)SC[C@H](NC(=O)CC[C@H](N)C(=O)O)C(=O)NCC(=O)O [Darinaparsin] (first compound 10 µM, partner dose 2 µM) | 2.44% | 7.58% | 26.9%
C[C@@H](N)c1ccc(C(=O)Nc2ccnc3[nH]ccc23)cc1 + N.N.[Cl][Pt][Cl] [cisplatin] (first compound 2 µM, partner dose 8 µM) | 64.2% | 73.5% | 99%
Cc1ccc(Nc2nccc(N(C)c3ccc4c(C)n(C)nc4c3)n2)cc1S(N)(=O)=O [Pazopanib] + N.N.[Cl][Pt][Cl] [cisplatin] (first compound 2 µM, partner dose 8 µM) | 84.4% | 112% | 78.3%
COc1ccc(C2=N[C@@H](c3ccc(Cl)cc3)[C@@H](c3ccc(Cl)cc3)N2C(=O)N2CCNC(=O)C2)c(OC(C)C)c1 [Nutlin-3] + C[As](C)SC[C@H](NC(=O)CC[C@H](N)C(=O)O)C(=O)NCC(=O)O [Darinaparsin] (first compound 0.5 µM, partner dose 2 µM) | 67.7% | 98.2% | 78.7%
O=C(/C=C/c1cccnc1)NCCCCC1CCN(C(=O)c2ccccc2)CC1 + C[C@]12O[C@H](C[C@]1(O)CO)n1c3ccccc3c3c4c(c5c6ccccc6n2c5c31)CNC4=O [Lestaurtinib] (first compound 0.05 µM, partner dose 0.02 µM) | 80.2% | 78.9% | 127%
Cn1sc(=O)n(Cc2ccccc2)c1=O + N.N.[Cl][Pt][Cl] [cisplatin] (first compound 2 µM, partner dose 8 µM) | 74.4% | 99% | 90.9%
CC(=O)c1c(C)c2cnc(Nc3ccc(N4CCNCC4)cn3)nc2n(C2CCCC2)c1=O [palbociclib] + C[As](C)SC[C@H](NC(=O)CC[C@H](N)C(=O)O)C(=O)NCC(=O)O [Darinaparsin] (first compound 0.2 µM, partner dose 2 µM) | 74.7% | 97.6% | 56.9%
COc1ccc(C2=N[C@@H](c3ccc(Cl)cc3)[C@@H](c3ccc(Cl)cc3)N2C(=O)N2CCNC(=O)C2)c(OC(C)C)c1 [Nutlin-3] + N.N.[Cl][Pt][Cl] [cisplatin] (first compound 0.5 µM, partner dose 8 µM) | 70% | 105% | 88.1%
Cn1cnc2c(F)c(Nc3ccc(Br)cc3Cl)c(C(=O)NOCCO)cc21 [selumetinib] + Cn1cc(C2=C(c3cn(C4CCN(Cc5ccccn5)CC4)c4ccccc34)C(=O)NC2=O)c2ccccc21 [Enzastaurin] (first compound 0.075 µM, partner dose 4 µM) | 60.7% | 102% | 71.8%
CC(=O)O[C@@]12CO[C@@H]1C[C@H](O)[C@@]1(C)C(=O)[C@H](O)C3=C(C)[C@@H](OC(=O)[C@H](O)[C@@H](NC(=O)OC(C)(C)C)c4ccccc4)C[C@@](O)([C@@H](OC(=O)c4ccccc4)[C@H]21)C3(C)C [Docetaxel] + C[As](C)SC[C@H](NC(=O)CC[C@H](N)C(=O)O)C(=O)NCC(=O)O [Darinaparsin] (first compound 0.0005 µM, partner dose 2 µM) | 53.5% | 9.46% | 75.8%
CCN(CC)CCNC(=O)c1c(C)[nH]c(/C=C2\C(=O)Nc3ccc(F)cc32)c1C [sunitinib] + N.N.[Cl][Pt][Cl] [cisplatin] (first compound 2 µM, partner dose 8 µM) | 57.3% | 90% | 77.7%
Nc1ncn([C@H]2C[C@H](O)[C@@H](CO)O2)c(=O)n1 [decitabine] + C[As](C)SC[C@H](NC(=O)CC[C@H](N)C(=O)O)C(=O)NCC(=O)O [Darinaparsin] (first compound 0.5 µM, partner dose 2 µM) | 102% | 79.7% | 106%
Cn1sc(=O)n(Cc2ccccc2)c1=O + C[C@]12O[C@H](C[C@]1(O)CO)n1c3ccccc3c3c4c(c5c6ccccc6n2c5c31)CNC4=O [Lestaurtinib] (first compound 2 µM, partner dose 0.02 µM) | 77.1% | 111% | 103%
COc1cc([C@@H]2c3cc4c(cc3[C@@H](O[C@@H]3O[C@@H]5CO[C@@H](C)O[C@H]5[C@H](O)[C@H]3O)[C@H]3COC(=O)[C@H]23)OCO4)cc(OC)c1O [etoposide] + C[C@]12O[C@H](C[C@]1(O)CO)n1c3ccccc3c3c4c(c5c6ccccc6n2c5c31)CNC4=O [Lestaurtinib] (first compound 0.1 µM, partner dose 0.02 µM) | 70.8% | 81.9% | 75.5%
O=c1[nH]nc(Sc2ncc([N+](=O)[O-])s2)n1-c1ccc2c(c1)OCCO2 + N.N.[Cl][Pt][Cl] [cisplatin] (first compound 1 µM, partner dose 8 µM) | 86.3% | 98.4% | 86.5%
Cc1cn(-c2cc(NC(=O)c3ccc(C)c(Nc4nccc(-c5cccnc5)n4)c3)cc(C(F)(F)F)c2)cn1 [nilotinib] + C[C@]12O[C@H](C[C@]1(O)CO)n1c3ccccc3c3c4c(c5c6ccccc6n2c5c31)CNC4=O [Lestaurtinib] (first compound 1 µM, partner dose 0.02 µM) | 66% | 83.2% | 115%
